Measured values from ChEMBL document CHEMBL4888484, “Replenishing the malaria drug discovery pipeline: Screening and hit evaluation of the MMV Hit Generation Library 1 (HGL1) against asexual blood stage Plasmodium falciparum ,using a nano luciferase reporter read-out” (2022).
Among all 150,000 compounds or so, about 540 (0.36%) showed an effect of 50% or more. The list shows a part of the results.

Tested on: Plasmodium falciparum
Test: Primary screen in NF54 nanoGlo assay, in single point, at 2uM, 72h; a lower Z score goes with more inhibition
Type: functional, Erythrocyte
Settings: timepoint 72 hour

| SMILES | % Inhibition [%] | Z score |
| --- | --- | --- |
| CN(CC(=O)N1CCc2ccccc2C1)c1ccc(F)c(F)c1 | -6 | 0.88 |
| Nc1cc(-c2cc(NCc3ccncc3)nc3[nH]ccc23)ncn1 | -3 | 0.37 |
| COc1nc2c(cc1CNC(=O)CCCC(C)C)C(=O)N(C1CCCC1)C2 | -11 | 1.48 |
| CCn1c(Cn2ncsc2=O)nc2c(F)cccc21 | -9 | 1.07 |
| CN(C(=O)[C@H]1[C@@H]2C[C@@H]3[C@H]1C(=O)O[C@@H]3C2)c1ccccc1Cl | -1 | 0.17 |
| COc1nc(C)nc(N(C)Cc2nccs2)c1C | -6 | 0.97 |
| C=CCc1ccccc1OCCN(C)Cc1ccc(CO)o1 | -10 | 2.06 |
| CCCCS(=O)(=O)N1CCC[C@H]1c1nn(CCC)c2c1COCC2 | -15 | 1.92 |
| C=CCC[C@@H](CN(C)CCN(C)C)Oc1nccc(C(F)(F)F)n1 | -5 | 0.9 |
| CCNC(=O)N(Cc1ccccc1OS(=O)(=O)c1ccc(OC)cc1)C[C@H]1CCCO1 | -11 | 1.2 |
| Cc1cc(NC(=O)C(=O)NCCc2ccc3c(ccn3C)c2)no1 | -11 | 2.03 |
| O=C(NCCCOc1ccc(F)cc1)c1ccncc1Cl | -8 | 0.84 |
| C[C@]1(O)CCN(C(=O)c2ccc(F)cc2Cl)C[C@H]1O | 7 | -0.86 |
| O=C1N[C@H]2C[C@@H](C(=O)NC[C@H]3O[C@H](CCOc4cc(-c5ccccc5)ccc41)CC[C@@H]3O)N(Cc1c[nH]cn1)C2 | 9 | -1.01 |
| CCn1ncnc1CN(C)C(C)C1CN(Cc2ccccc2)CCO1 (stereo not drawn) | 2 | -0.26 |
| CCOC(=O)N1CC[C@H](NC2(c3cccc(Cl)c3)CC2)C1 | -14 | 2.65 |
| O=C(NCc1ccc(N2CCCC2)cc1)c1ccccc1F | 4 | -0.41 |
| Nc1ccc(C(=O)c2ccc(Oc3ccccc3)c(N)c2)cc1 | -10 | 1.48 |
| Cc1ccc(-c2nnc(-c3cccnc3N3CCC4(CC3)OCCO4)o2)cc1 | -19 | 1.86 |
| O=C(Nc1cccc(S(=O)(=O)NC2CC2)c1)C(=O)NC1CCCC1 | -10 | 1.61 |
| Cc1ccnc(-n2nccc2NC(=O)[C@H]2CCC(=O)N2C)c1 | -9 | 1 |
| CC[C@@](C)(CNC(=O)c1c(C)ccn1C)NC(=O)c1c(C)ccn1C | -8 | 0.8 |
| O=C(O)c1cnc(N2CC3CCC2C3)s1 (stereo not drawn) | 1 | -0.12 |
| O=C1CCCN1CC(=O)N1CCO[C@@H](CCCc2ccccc2)C1 | -4 | 0.69 |
